Reference: the supplement of paper PMC11417369
± gives the standard deviation of the averaged measurements. Some of the results follow.

System: PfAP2-EXP AP2 domain (GST-tagged)
Experiment: gcPBM binding intensity (ln(normalized median fluorescence intensity)); higher = stronger DNA binding
Procedure, shortened: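 GST-fused DNA-binding domains of P. falciparum, expressed in E. coli, were applied at about 25 μg on average for 1 h to an Agilent 4 × 180k array of primer-extended double-stranded 36-bp intergenic genomic probes and negative controls. Binding intensity is the highest Masliner-normalised natural-log median intensity across replicate spots of either probe orientation, measured with Alexa488 anti-GST antibody and a 488 nm scan.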

Sequence | gcPBM binding intensity (ln)
ATATATTACAATATATGTACTTAATTTGCTTAAATA [XGTACX_site7912] | 8.18 ± 0.32
AAAATAAATATTACATGTACATATATATATATATAT [XGTACX_site8492] | 10.1 ± 0.44
TAAAACAGAATGAGGAGTACAAAAAGAAGAAAAGGG [XGTACX_site1246] | 9.06 ± 0.45
AAAAAAACAACATGCACACGCACACCCAAAAAAAGC [CACACA_site72] | 8.96 ± 0.42
ATCATTTTTAATAAATGTACAAGTTTTAAAAAAAAA [XGTACX_site7340] | 8.2 ± 0.47
GTAATCCACAAACACACACACATACACATATATATA [CACACA_site2728] | 8.78 ± 0.34
GTGTATTTTGTGCGCACACACATGCAAAAAGAAATA [CACACA_site6660] | 9.21 ± 0.31
TACACATGTTTAAAATGTACGTTTTATAACACACAC [XGTACX_site8229] | 8.88 ± 0.31
GGTAGGTGAATATATACACACATATATTATATATAT [CACACA_site1984] | 8.66 ± 0.18
TTTTACAAGTATTGATAAATAAGAAATATATAAAAT [CACACA_negctrl_site529] | 8.34 ± 0.4
AAAAAAAATTAAGCATGTATAAATATATATATATAT [CACACA_negctrl_site1540] | 10.1 ± 0.16
ATTTAATTTGTTCTTACACACACATATATATATATT [CACACA_site8310] | 9.03 ± 0.56
TCATACGAAATATAAACACACATACAATAAATAAAT [CACACA_site5156] | 8.78 ± 0.44
ATAATATAAATACAAACACACAATTGCGTCCACATT [CACACA_site5039] | 8.82 ± 0.38
ATTATAACCATATACACACCCATATAAATAAATATA [CACACA_site6926] | 8.71 ± 0.65
CGTTTTAATAAGATCACACATATAATATATATATAT [CACACA_site5159] | 9.54 ± 0.43
GGACAAGAATAGTGCACATGCAATGTTATTTTTTAT [TGCATGCA_site450] | 9.03 ± 0.21
TATTAAATGGCCATTACATGCAATTATTTCTAATAA [TGCATGCA_site275] | 8.59 ± 0.35
ATATTAAATGTTATCACACACATAATTACTTCCATA [CACACA_site7160] | 8.54 ± 0.36
TCAAATATATAGAATACACACATGGATATAAGAAAT [CACACA_site4065] | 8.94 ± 0.46
AACGCACGAGGACACACACACATATTTATATTTATA [CACACA_site6608] | 8.68 ± 0.33
TTTTTTAACTGTATGATGTTATATTAAAAATAAAAA [GTGCAC_negctrl_site463] | 8.12 ± 0.46
ATTTATATATAATATACACACATATAATACCCATAT [CACACA_site4548] | 8.48 ± 0.42

Sequence | gcPBM binding intensity (ln)
ATATATTTTATATAATGTACATAAACCGCACACATA [XGTACX_site6061] | 8.71 ± 0.42
TTTCAAATTTAATACACACACAAGTATATATCTATC [CACACA_site7782] | 8.41 ± 0.36
TTTAATATTAGCATATGTACACAAATCACACGGAAA [XGTACX_site2473] | 8.96 ± 0.41
TATATTATGACCACCACACACCTATACACATAACAT [CACACA_site7199] | 8.88 ± 0.43
TAATCCTTTCAATATTGTACACATTTGTGTTAAGAA [XGTACX_site1275] | 8.76 ± 0.31
ATTTAAAAAAAAAAAAAAAAAAAAAAAAAAAGAAAA [CACACA_negctrl_site722] | 8.01 ± 0.43
GTATATTTTTAAAGGTGTACTTTTTTTTTTTTTTTT [XGTACX_site721] | 8.57 ± 0.14
ATATAAAACTATAATACACACATAAAATATATTATA [CACACA_site6588] | 8.46 ± 0.43
TATATAATACAACATGCACACATATATATGTGAATC [CACACA_site8794] | 8.99 ± 0.39
ATAAATATATATATAGTGCATATAAGCCACCTTCAA [GTGCAC_site9628] | 8.86 ± 0.014
TATATTTATTTATTCTGTACTGAAGACAGTTATGTA [XGTACX_site8857] | 8.55 ± 0.46
CGTAATAAAAACAAATGTACATGACCTGGACAGGTT [XGTACX_site6560] | 8.9 ± 0.36
AAAAAAAAAAAAAGAGTGCAAACTATGATAATTTAA | 8.57 ± 0.23
TTACCTTTATTGTATGAACACACATAAGCTGATACA [CACACA_site9334] | 8.54 ± 0.45
ACATATGAATATAATACACACTTGTATTATTAATAT [CACACA_site8546] | 8.34 ± 0.4
AAAATTTAATATAATGCACACATAAAAAAAAAAAAA [CACACA_site7923] | 8.47 ± 0.45
CCATTTTTTTTATACGCACACGTCATACTTTTAAAA [CACACA_site4988] | 9.08 ± 0.24
TTAGTTATTAAAAAAAGTACATAAGTAGATATCATC [XGTACX_site8712] | 8.48 ± 0.31
TATATATATACATATTGTACATGTGTATATTTTTTT [XGTACX_site361] | 8.93 ± 0.042
GAATAATATGGACATACACACATATACATACATATA [CACACA_site2114] | 8.58 ± 0.35
TTATTTCATTCTTGAAGTACGTGAAAAATGAAAACA [XGTACX_site4089] | 8.71 ± 0.39
TACTAATATGATATATAAATATTGTTATATAATAAT [XGTACX_negctrl_site227] | 8.08 ± 0.35
AAAATAAAAGAAAAAAGTACAAAATCAGATTAATTA [XGTACX_site8413] | 8.51 ± 0.51

Sequence | gcPBM binding intensity (ln)
TGAATACAAATTTACGCATGTAATTTCCAGAGGGAG [TGCATGCA_site769] | 8.74 ± 0.37
AATATATGTAATATATGTACTTAATTATATTTTAAT [XGTACX_site4382] | 8.06 ± 0.35
TATAAAATATAATTAGCACACATATATAAAATATAT [CACACA_site9355] | 8.21 ± 0.34
GTAGACTGAAACCACACACACATATATATATATATT [CACACA_site605] | 8.66 ± 0.42
TAATATTTCGCACTGTGTACTGAAATATTTATATCG [XGTACX_site516] | 9.04 ± 0.2
ATAATAAGACGATAAGGTACACAAAATGTTAATATA [XGTACX_site6984] | 8.78 ± 0.47
AAAGAAAGAAAGAAAAGTACTTAAACTTTTAAAAAT [XGTACX_site8531] | 8.5 ± 0.58
ATTTCTTTTGTTATAGTGCATAATATTTATGTACGT | 8.95 ± 0.24
AATAATAATAAAAATAAACACACATATATATGTATA [CACACA_site8928] | 8.44 ± 0.43
TAACTATCATGTATTACACACAATATTTATTATATA [CACACA_site2701] | 8.56 ± 0.43
TTAAATAAATAAATAACACACATATAAAAATAACGC [CACACA_site3266] | 8.78 ± 0.45
ATATTAATATATAGAAGTACTCACATGTTAATATAA [XGTACX_site7323] | 8.68 ± 0.35
AAGAAAAAAAGCAACACACGTACCAACACAATTATG [CACACA_site3133] | 9.05 ± 0.4
AAGACAAATTTTACATGTACAAATATATTACATATA [XGTACX_site7060] | 8.73 ± 0.46
TATTCAAATTTCCACATACACACCTTGTAGATATAT [CACACA_site281] | 8.55 ± 0.38
TATTTGTGGATTTTTACACACATTAATATATATATA [CACACA_site3375] | 9.39 ± 0.2
AGGAAAATTATGAATGGTACAGAATATATTAGGAGA [XGTACX_site6282] | 9.02 ± 0.49
AAACAAAATAAATATGAACACACACCGTTATGCCTT [CACACA_site8347] | 8.63 ± 0.42
GCACTAAAAAAATAAACACACAGATTTATATAATAT [CACACA_site1381] | 8.32 ± 0.45
AATAAGTTATTATTTTGTACACATAAATAATACGTT [XGTACX_site814] | 8.32 ± 0.3
AAAAAAACGTAAAAATGTACTTTTTGTATATAACCT [XGTACX_site7950] | 8.62 ± 0.47
ATATATGCATATATTTGTACACATTTTTTTACATAA [XGTACX_site4624] | 9.03 ± 0.49
AAGGAACTATAATATACACACATAAGTGTACTTATA [CACACA_site7816] | 8.405 ± 0.078

Sequence | gcPBM binding intensity (ln)
TAAAGCGACATTTGGAAAATATATATCCTAGCATTT [CACACA_negctrl_site327] | 8.41 ± 0.53
ATTCGTTATAAAATATGTACATAAATATATATATAT [XGTACX_site2819] | 9.82 ± 0.23
AAAATACACAGACACACACACATATAAATAAATATT [CACACA_site7871] | 8.59 ± 0.54
TATTCGTGCAATAGTAGTACACTTAAAAATTATTCA [XGTACX_site269] | 8.9 ± 0.21
ACATAGATGCATATCACACATAATAATATTGTCGTA [CACACA_site4819] | 8.53 ± 0.4
TTATAAAATAAACTTACACACATGAAATATTATATT [CACACA_site1945] | 8.1 ± 0.34
ATAAACTGAGTGGTTACACACAAAACCAATAATTTT [CACACA_site3478] | 8.42 ± 0.44
AGTTTCTATTTAGTGTGTACTTAAGAAAAATATCTC [XGTACX_site82] | 8.56 ± 0.32
AAATGTATATATGTATGTACATATATATATATATAT [XGTACX_site5778] | 10 ± 0.35
ATATATATATATATATGTACTCATATTTTATTATTT [XGTACX_site898] | 10.1 ± 0.3
TCGCAAATAAATTAATGTACACATATATATATATAT [XGTACX_site5145] | 10.1 ± 0.28
TTTTCAATTTTTTATGAACACACAAAAAAAAAAAAA [CACACA_site8808] | 8.29 ± 0.33
TATTGATAATTTTATATATACATACATAAATAAATA [CACACA_negctrl_site1687] | 8 ± 0.42
ACTAATGTAAAAGTTTGTACATATATTGAGAATTAT [XGTACX_site7439] | 8.47 ± 0.33
ATTTTTTTCCACTAGTGTACAAATTTTACATTGTGT [XGTACX_site5023] | 9.12 ± 0.32
AAGAAAAAAACAAAAAAAAAAAAAAAAATTCTTATT [TGCATGCA_negctrl_site504] | 7.91 ± 0.49
CTATAATATTAGTGCACACACAAAAATGTACTAAAC [CACACA_site6442] | 9.31 ± 0.71
TAAAAAAAAACAGAAACACACATTATTCATATAGAT [CACACA_site7052] | 8.51 ± 0.47
AAAAGCACCGTTCGTTGTACACTGAAACACTTTTGT [XGTACX_site199] | 8.78 ± 0.26
GTTATAAATTTTTTTTTTTTTTTTTTTTTTTTTTTT [CACACA_negctrl_site848] | 9.11 ± 0.042
